Hit rate of the full screen: of about 16,000 compounds, about 40 (0.2%) were called active. Inconclusive results (about 1%) are left out. Calls come from the whole dose curve; as a rule, active = well fitted activation curve with a large enough effect; inconclusive = small, poorly fitted or top-dose-only effect, or another doubt; inactive = no such curve, though single readings can be large or run the other way. Not every entry of the source has a single result; some have several. This is not the full list of results. An entry can have further records. Results that share an entry repeat one measurement across runs, samples, wells, individuals or studies.
% is set by controls: 0 for no effect and ±100 for the full control effect.

The target of the test is Rap guanine nucleotide exchange factor 4 (Homo sapiens) (UniProt Q8WZA2). The test can be described thus: Validation qHTS for agonist of cAMP-regulated guanine nucleotide exchange factor 4 (EPAC2).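 Note: exchange makes BODIPY-GDP fluorescence drop when released from Rap1B; series mostly up to about 150 µM.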 To be noted: EPAC2 Rap1B BODIPY-GDP exchange, fluorescence; stronger effect = higher value. The source says: Principle Investigator: Xiaodong Cheng Ph.D.
Chain of UniProt Q8WZA2 (Q8WZA2 whole entry, looked up): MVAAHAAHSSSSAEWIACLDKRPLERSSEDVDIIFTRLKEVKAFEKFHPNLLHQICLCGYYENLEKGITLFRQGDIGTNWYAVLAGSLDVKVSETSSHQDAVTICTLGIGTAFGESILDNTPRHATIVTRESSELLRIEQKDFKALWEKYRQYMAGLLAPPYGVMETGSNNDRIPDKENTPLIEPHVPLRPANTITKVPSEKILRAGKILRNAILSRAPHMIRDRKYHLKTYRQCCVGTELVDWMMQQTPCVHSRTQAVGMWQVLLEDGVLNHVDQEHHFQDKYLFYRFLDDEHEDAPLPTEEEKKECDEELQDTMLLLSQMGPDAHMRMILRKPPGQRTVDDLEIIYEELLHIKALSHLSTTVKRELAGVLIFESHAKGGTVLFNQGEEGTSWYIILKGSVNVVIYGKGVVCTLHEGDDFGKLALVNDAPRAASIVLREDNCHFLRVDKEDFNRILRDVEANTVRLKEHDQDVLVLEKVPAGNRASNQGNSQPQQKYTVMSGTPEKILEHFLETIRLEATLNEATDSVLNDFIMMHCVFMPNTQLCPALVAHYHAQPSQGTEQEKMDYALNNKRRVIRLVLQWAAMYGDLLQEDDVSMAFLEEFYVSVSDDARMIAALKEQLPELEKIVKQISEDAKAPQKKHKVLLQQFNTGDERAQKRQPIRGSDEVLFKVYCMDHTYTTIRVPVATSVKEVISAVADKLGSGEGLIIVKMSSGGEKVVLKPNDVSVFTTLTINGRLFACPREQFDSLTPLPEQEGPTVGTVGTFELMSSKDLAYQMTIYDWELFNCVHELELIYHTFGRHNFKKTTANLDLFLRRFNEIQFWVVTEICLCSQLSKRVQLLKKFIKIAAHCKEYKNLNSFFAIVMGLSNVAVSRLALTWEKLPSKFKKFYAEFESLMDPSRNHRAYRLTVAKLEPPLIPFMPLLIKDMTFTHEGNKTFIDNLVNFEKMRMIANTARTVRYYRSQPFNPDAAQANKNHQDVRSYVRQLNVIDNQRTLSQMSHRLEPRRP
The University of Texas Medical Branch, […], TX
In multi-cellular eukaryotic organisms, the effects of cAMP are transduced by two ubiquitously-expressed intracellular cAMP receptors, the classic protein kinase A/cAMP-dependent protein kinase (PKA/cAPK) and the more recently discovered exchange protein directly activated by cAMP/cAMP-regulated guanine nucleotide exchange factor (EPAC/cAMP-GEF). Both PKA and EPAC are ubiquitously expressed in all tissues, and an increase in intracellular cAMP levels will lead to the activation of both PKA and EPAC. […]
This qHTS will be used to screen the Molecular Libraries Small Molecule Repository (MLSMR) as a concentration-titration series using the NCGC unique quantitative screening (qHTS) platform to find activators for EPAC1. […] Activators are identified by monitoring the change in fluorescence signal as the exchanged free BODIPY-GDP has a reduced fluorescence compared to Rap1-bound BODIPY-GDP. […]
Briefly, three uL of reagents (100 nM EPAC2, 250 nM RAP1B-BODIPY-GDP, 50 uM GDP) were dispensed into a 1536-well Greiner black solid-bottom medium binding assay plate. […] The assay plates were read at 5 minute intervals for 30 minutes in the ViewLux plate reader using 480nm excitation and 540nm emission filters. […]
A general note: qHTS replaces the single test concentration by a dilution series.
For the molecule `N=c1nc(N2CCCCC2)cc(N)n1O`, the activation entry is “inactive: -21.1, 13.6, -2.57, -13.2, -6.43% [separate samples]”. On to `Cc1[nH]c(=O)c(C#N)cc1-c1ccncc1`, for which the activation result is “inactive: -35.1, -0.111, -8.04, -15.8% [separate samples]”.

For the origin of these results see PubChem BioAssay AID1645887 (National Center for Advancing Translational Sciences (NCATS), 2021).
